Out of some 150,000 compounds screened, about 540 (0.36%) showed an effect of 50% or more. This is one part of the list.
These compounds were tested on Plasmodium falciparum (assay: Primary screen in NF54 nanoGlo assay, in single point, at 2uM, 72h; a lower Z score goes with more inhibition). Conditions: timepoint 72 hour.
Format: functional, Erythrocyte

**Q.** What does the source list for C[C@H]1Cc2ccccc2N1Cc1nc(-c2ccc(F)cc2)no1?
**A.** % Inhibition: -21%; Z score: 1.73

**Q.** What does the source list for O=C(CN(Cc1ccno1)C[C@H]1CCCO1)N1CCCC1?
**A.** % Inhibition: -10%; Z score: 1.31

**Q.** With C[C@H]1NC(=O)N(c2cccc(C#N)c2)C1=O as the compound, how does the “% Inhibition” value read?
**A.** Its value is -4%.

**Q.** What about the Z score of the same compound?
**A.** The Z score was 0.53.

**Q.** With COC(=O)N1CC[C@H](Nc2ncc(Br)cn2)C1 as the compound, how does the “% Inhibition” value read?
**A.** Its value is 0%.

**Q.** And the Z score?
**A.** The Z score was 0.04.

**Q.** With Cc1ncc2n1C[C@@H](C(=O)N(CC1CC1)CC1CC1)CC2 as the compound, how does the “% Inhibition” value read?
**A.** The value was 0%.

**Q.** What about the Z score of the same compound?
**A.** Its Z score is -0.03.

**Q.** What does the source list for CCc1nc(C2(NS(=O)(=O)c3cc(C)oc3C)CCCC2)no1?
**A.** % Inhibition: -4%; Z score: 0.42

**Q.** For O=C(NCCn1cccn1)N1C2CCC1CC(CCF)C2 (centres undefined), which “% Inhibition” value is on record?
**A.** Its value is -17%.

**Q.** And the Z score?
**A.** The Z score was 2.43.

**Q.** Which results are given for CCOC(=O)C1CCN(C(=O)[C@@H]2COC3(CCC(C)CC3)N2C(=O)c2cccc(C)c2)CC1 (some centres undefined)?
**A.** % Inhibition: 1%; Z score: -0.1

**Q.** What does the source list for COc1ccc(C(=O)CN2CCN(C(=O)c3c(OC)cccc3OC)CC2)cc1?
**A.** % Inhibition: -15%; Z score: 2.75

**Q.** How did the “% Inhibition” value turn out when C=CCNC(=O)N1CCC(O)(c2csc(CN(CC)CC)n2)CC1 was run?
**A.** The value was 30%.

**Q.** What about the Z score of the same compound?
**A.** The Z score was -3.39.

**Q.** Which “% Inhibition” value does the source give for O=C(CCc1c[nH]c2ccccc12)N1CCC(c2c[nH]c3ccccc23)CC1 here?
**A.** The value was 8%.

**Q.** And the Z score?
**A.** Its Z score is -1.59.

**Q.** How did the “% Inhibition” value turn out when CCC1C(=O)CC(c2ccco2)NC1c1ccco1 (centres undefined) was run?
**A.** Its value is 35%.

**Q.** What about the Z score of the same compound?
**A.** Its Z score is -1.3.

**Q.** Which “% Inhibition” value does the source give for CCCc1cc(N2CCC[C@H](CN3CCCC3=O)C2)nc(C)n1 here?
**A.** The value was -11%.

**Q.** And the Z score?
**A.** Its Z score is 1.5.

**Q.** Which results are given for CC(C)C[C@@H](CO)n1ccnc1-c1ccccc1Cl?
**A.** % Inhibition: -8%; Z score: 1.11

**Q.** For CC(C)C(=O)CNC(=O)[C@H](C)Oc1cccnc1, which “% Inhibition” value is on record?
**A.** The value was -11%.

**Q.** What about the Z score of the same compound?
**A.** Its Z score is 1.09.

**Q.** For Cn1ccnc1CC[C@H]1CCCCN1Cc1cc(C(C)(C)C)[nH]n1, which “% Inhibition” value is on record?
**A.** Its value is -6%.

**Q.** What about the Z score of the same compound?
**A.** Its Z score is 0.62.

**Q.** For O=C(CN1CCN(c2ccccc2F)C1=O)N1CCN(c2ccccc2O)CC1, which “% Inhibition” value is on record?
**A.** Its value is -7%.

**Q.** And the Z score?
**A.** The Z score was 0.86.

**Q.** For OC[C@@]1(CCc2ccccc2)CCCN(c2ncccc2F)C1, which “% Inhibition” value is on record?
**A.** The value was 0%.

**Q.** And the Z score?
**A.** Its Z score is -0.01.

**Q.** With Cc1ccc(NC(=O)Nc2cc(C)ccc2N2CCCN(Cc3ccc(F)cc3)C2=O)cc1 as the compound, how does the “% Inhibition” value read?
**A.** Its value is 37%.

**Q.** What about the Z score of the same compound?
**A.** Its Z score is -4.62.

**Q.** With O=S(=O)(c1ccsc1)N1CC[C@H](c2nnc[nH]2)C1 as the compound, how does the “% Inhibition” value read?
**A.** Its value is -17%.

**Q.** What about the Z score of the same compound?
**A.** Its Z score is 3.14.

**Q.** How did the “% Inhibition” value turn out when CN=C(NC)NCC1(C)Cc2ccccc2C1 was run?
**A.** The value was -9%.

**Q.** What about the Z score of the same compound?
**A.** The Z score was 1.39.

**Q.** For CCN=C(NCCOCC)NCc1cccc(OC)c1, which “% Inhibition” value is on record?
**A.** The value was -4%.

**Q.** What about the Z score of the same compound?
**A.** The Z score was 0.44.

**Q.** Which results are given for COC(=O)[C@H](Cc1ccc(OC)cc1)NC(=O)[C@H]1CN(C(=O)c2cccnc2)CCN1C(=O)NC1CCCCC1?
**A.** % Inhibition: 6%; Z score: -0.95

**Q.** Which results are given for Cc1[nH]c(=O)c(C#N)c(C)c1CCC(=O)Nc1ccc(N2CCCCC2)cc1?
**A.** % Inhibition: -11%; Z score: 1.71

**Q.** Which results are given for O=C(Nc1ccccc1)c1cccc(N2C(=O)C3CCCCC3C2=O)c1 (centres undefined)?
**A.** % Inhibition: -2%; Z score: 0.24

**Q.** How did the “% Inhibition” value turn out when COC1CN(c2ccc(NC(=O)NC3CCCC3)cc2)C1 was run?
**A.** Its value is -11%.

**Q.** And the Z score?
**A.** Its Z score is 1.57.

**Q.** Which “% Inhibition” value does the source give for CCOC(=O)c1c(-c2ccccc2)n(C)c2cc(-c3cccnc3)c(O)cc12 here?
**A.** Its value is 9%.

**Q.** And the Z score?
**A.** Its Z score is -1.7.

**Q.** Which “% Inhibition” value does the source give for CCc1nc(-c2cc(S(=O)(=O)NCC(=O)N3CCOCC3)c(C)s2)no1 here?
**A.** The value was -8%.

**Q.** And the Z score?
**A.** Its Z score is 0.8.

**Q.** How did the “% Inhibition” value turn out when O=C(CN1C[C@H]2CCS(=O)(=O)[C@H]2C1)NC1CCCC1 was run?
**A.** The value was -11%.

**Q.** And the Z score?
**A.** The Z score was 1.39.

**Q.** CCc1nc(C)c(CC(=O)N[C@H]2CC[C@@H]3CCC[C@@H]32)c(=O)[nH]1 was tested. Which “% Inhibition” value did it give?
**A.** Its value is -13%.

**Q.** And the Z score?
**A.** Its Z score is 1.37.

**Q.** Which results are given for COc1cccc(CNC(=O)c2oc3ccc4c(c3c2C)[C@@H](O)CC2(CCCCCC2)O4)c1?
**A.** % Inhibition: -3%; Z score: 0.43

**Q.** What does the source list for CC(=O)Nc1ccc(N2C[C@@]34C=C[C@@H](O3)C(C(=O)NCc3ccncc3)C4C2=O)cc1 (some centres undefined)?
**A.** % Inhibition: -4%; Z score: 0.55

**Q.** For COc1ccc(CC(=O)N[C@H]2CCN(c3ncc[nH]c3=O)C2)c(C)c1, which “% Inhibition” value is on record?
**A.** The value was -10%.

**Q.** And the Z score?
**A.** The Z score was 1.64.

**Q.** Which “% Inhibition” value does the source give for Nc1cc(C(=O)N2C[C@H]3CC[C@@H](C2)N(CC2CCC2)C3=O)n[nH]1 here?
**A.** The value was -13%.

**Q.** What about the Z score of the same compound?
**A.** Its Z score is 1.78.

**Q.** For CCc1noc(CN(CCC(F)(F)F)CC(=O)OC)n1, which “% Inhibition” value is on record?
**A.** The value was -9%.

**Q.** And the Z score?
**A.** Its Z score is 0.78.

**Q.** COc1cc(Br)ccc1N was tested. Which “% Inhibition” value did it give?
**A.** The value was 32%.

**Q.** What about the Z score of the same compound?
**A.** Its Z score is -0.52.

**Q.** What does the source list for Cc1nc(C(=O)N2CCN(Cc3ccccc3)[C@@H]3CS(=O)(=O)C[C@@H]32)c(C)o1?
**A.** % Inhibition: -2%; Z score: 0.24

**Q.** Which “% Inhibition” value does the source give for O=S(=O)(c1ccc(Cl)s1)N1CCC[C@H]1c1ccc2c(c1)OCCO2 here?
**A.** Its value is -5%.

**Q.** What about the Z score of the same compound?
**A.** Its Z score is 0.77.

**Q.** How did the “% Inhibition” value turn out when CCn1cc(CNC(=O)CCCn2cnnn2)c(C)n1 was run?
**A.** The value was -6%.

**Q.** What about the Z score of the same compound?
**A.** The Z score was 1.05.

**Q.** How did the “% Inhibition” value turn out when C[C@H](Oc1ccc(-c2ccccc2)c(F)c1)c1cc[nH]n1 was run?
**A.** The value was 1%.

**Q.** What about the Z score of the same compound?
**A.** Its Z score is -0.07.

**Q.** How did the “% Inhibition” value turn out when COc1cccc(C[C@@H]2CC[C@H](CN3CCC(C(=O)O)CC3)O2)n1 was run?
**A.** The value was -3%.

**Q.** What about the Z score of the same compound?
**A.** The Z score was 0.24.

**Q.** How did the “% Inhibition” value turn out when Cc1ccc2[nH]c(CN[C@H]3CC[C@@H](O)C3)cc2c1C was run?
**A.** The value was 5%.

**Q.** What about the Z score of the same compound?
**A.** Its Z score is -0.52.

— ChEMBL document CHEMBL4888484, “Replenishing the malaria drug discovery pipeline: Screening and hit evaluation of the MMV Hit Generation Library 1 (HGL1) against asexual blood stage Plasmodium falciparum ,using a nano luciferase reporter read-out” (2022)
